Test results: PubChem BioAssay (NCI)
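1) Cells in 96-well plates. 2) Compound, 48 h, 5 concentrations. 3) Linear interpolation between surrounding doses. 4) Unreached endpoint = highest concentration. GI50 = concentration required for 50% inhibition of growth. TGI: total growth inhibition.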

Test system: NCI-H322M lung
Test: inhibition of tumour cell growth, NCI panel, 48 h

SMILES | GI50 [µM] | TGI [µM]
O=C(Cc1c(-c2ccccc2[N+](=O)[O-])n(-c2ncnc3c2c(-c2ccccc2)c(-c2ccccc2)n3Cc2ccccc2)[nH]c1=O)c1ccc(Cl)c(Cl)c1 | 23 | > 100
Nc1nn2c(-c3cc4cc(Br)ccc4oc3=O)ccnc2c1N=Nc1ccccc1 | 2.45 | 7.42
Cc1ccc2nc3c(nc2c1)c1cc(I)ccc1n3CCN(C)C | 4.91 | 18.5
CCN1C(=O)N(CC)C2NNC(Sc3c(C(=O)O)c4ccccc4n(C4CCCC4)c3=O)=NC21 (stereo not given) | 6.61 | 49.5
C=C1CC[C@@H]2[C@]3(C)COC(c4cn[nH]c4-c4ccc(OC)cc4)O[C@@H]3CC[C@@]2(C)[C@@H]1C/C=C1/C(=O)OCC1O (stereo not given in full) | 4.17 | 27.4
